Measurements from PubChem BioAssay AID1508623 (National Center for Advancing Translational Sciences (NCATS), 2021).
The campaign covered roughly 48,000 compounds. About 450 (0.94%) were called active. Another 19% or so got no clear call; they are omitted. The call rests on the fitted dose curve; in most records, active means well fitted inhibition curve with a large enough effect; inconclusive means small, poorly fitted or top-dose-only effect; inactive means no such curve, though single readings can be large or run the other way. The list shows a part of the results.

assay: Primary qHTS for Identification of Small Molecule Inhibitors of Huntingtin Promoter Activity; settings: HEK293 HTT promoter firefly luciferase reporter (activity 0% = vehicle and -100% = no light), 24 h; series mostly up to 57.5 µM; activity change, negative = inhibition: at the top concentration; further: nearly all actives have a fitted effect of over 50% in size
Outline: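 Firefly luciferase signal from promoter-reporter HEK293 cells was scaled between vehicle (0%) and zero RLU (-100%). Compounds were tested at final concentrations of up to 57.5 uM over 24 h at 37 degrees C. PTC124 at 50 uM final served as control inhibitor.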
Potency means the concentration at half of the fitted maximal effect.

Row | Structure (SMILES) | activity change, negative = inhibition | Potency
1 | CCc1ccc(-n2nc3ccc(NC(=O)c4cc5ccccc5o4)cc3n2)cc1 | inactive: -4.65% [at 11.5 µM] | –
2 | CC(C=CC(=O)NO)=C[C@@H](C)C(=O)c1ccc(N(C)C)cc1 | inactive: 25.2% | –
3 | CCOc1ccc(-c2cc3c(=O)n(Cc4nc(-c5cccc(OC)c5OC)oc4C)ccn3n2)cc1Cl | inactive: -1.81% | –
4 | CCN(Cc1ccc(OC)cc1)c1ccc(-c2nc(-c3ccncc3)no2)cc1[N+](=O)[O-] | inactive: -33% | –
5 | Cc1cc(C)c(Cn2c3ccccc3c3cnn(CC(=O)NCCCc4ccccc4)c(=O)c32)c(C)c1 | inactive: -24.4% | –
6 | O=C(NCCc1ccccc1)c1ccc(Cn2c(SCc3ccc(F)cc3)nc3cccnc32)cc1 | inactive: -14.4% | –
7 | Cc1ccccc1Nc1c(-c2ccsc2)nc2c(C)cccn12 | inactive: -13.6% | –
8 | O=C(NCc1cccc(Cl)c1)c1cccn1-c1nnc(N2CCCC2)s1 | inactive: -15% | –
9 | COc1ccc(OC)c(S(=O)(=O)N2Cc3ccccc3CC2C(=O)Nc2ccc(C(C)=O)cc2)c1 (centres undefined) | inactive: -11.2% | –
10 | COc1ccc(OC)c(CCNC(=O)CCn2c(=O)c3cccn3c3cccnc32)c1 | inactive: 14.4% | –
11 | CCCCN(c1ccccc1)c1ncnc2c1cnn2-c1ccc(Cl)cc1 | inactive: -21.1% | –
12 | CC(C)Cn1c(=O)c2ccccc2n2c(-c3ccc(Br)cc3)nnc12 | inactive: -9.2% | –
13 | Cc1ccc(CN(Cc2ccco2)c2cnc(S(C)(=O)=O)nc2C(=O)Nc2ccc(Br)cc2)o1 | inactive: -37.8% | –
14 | Cc1ccccc1NC(=O)Cn1c(=O)n(Cc2ccc3c(c2)OCO3)c(=O)c2oc3ccccc3c21 | inactive: -1.44% | –
15 | Cc1ccc(-c2cn3cccc(C)c3n2)cc1NS(=O)(=O)c1ccccc1 | inactive: -6.66% | –
16 | CCCCc1nc(Cl)c(CO)n1Cc1ccc(-c2ccccc2-c2nn[nH]n2)cc1 | inactive: 8.31% | –
17 | Cc1ccc(-c2nn3c(C)nnc3c3ccccc23)cc1S(=O)(=O)NCCO | inactive: 16.4% | –
18 | CCOc1cc(C(=O)OCc2cc(=O)n3c(C)csc3n2)cc(OCC)c1OCC | inactive: -12.2% | –
19 | CC(=O)Nc1ccc(S(=O)(=O)NCC2CCC(C(=O)NCCCOC(C)C)CC2)cc1 (centres undefined) | inactive: 18.5% | –
20 | CS(=O)(=O)c1ncc(N(Cc2ccccc2)Cc2ccco2)c(C(=O)Nc2cccc(C(F)(F)F)c2)n1 | inactive: -34.3% | –
21 | CCOC(=O)c1c(NC(=O)c2cc(-c3ccccc3)on2)sc2c1CCCC2 | inactive: -8.83% | –
22 | CC(C)Cn1c(=O)c2sccc2n2c(CCCC(=O)Nc3ccc(Cl)cc3)nnc12 | inactive: -18.5% | –
23 | Cc1cc(C)c(NC(=O)CSc2nc(=O)n(Cc3ccco3)c3c2CCC3)c(C)c1 | inactive: -1.81% | –
24 | COc1cccc(-c2nc(SCc3cc(=O)c4cc(Cl)ccc4[nH]3)n[nH]2)c1 | inactive: -29.9% | –

Row | Structure (SMILES) | activity change, negative = inhibition | Potency
25 | CCc1ccc(CN(Cc2ccco2)C(=O)c2cc(-c3ccc(Cl)cc3)on2)cc1 | inactive: -38.4% | –
26 | CCOc1ccc(-c2nonc2NC(=O)c2ccccc2C)cc1 | inactive: -12.9% | –
27 | Cc1ccc2c(c1)c(=O)c(S(=O)(=O)c1ccc(F)cc1)cn2CC(=O)Nc1ccc2c(c1)OCO2 | inactive: -24.5% | –
28 | Cc1ccc(Cl)cc1NC(=O)NC1COc2ccccc2C1 (centres undefined) | inactive: -5.98% | –
29 | CCN(CC)C(=O)c1sc2c(c1C)c(=O)n(-c1ccc(C)c(C)c1)c(=O)n2CC(=O)Nc1ccc(F)cc1 | inactive: -28.6% | –
30 | O=C(Cc1ccc(Cl)cc1)Nc1ccc2oc(-c3ccccc3)nc2c1 | inactive: 18.4% | –
31 | Cc1cccc(C2N3CC4(C(C)C)CN2CC(C(C)C)(C3)C4=O)c1 (centres undefined) | inactive: -18.5% | –
32 | Cc1ccc(-n2ncc(C(=O)NCc3cccs3)c2C2CCN(C(=O)OC(C)(C)C)CC2)cc1C | inactive: -30% | –
33 | CCC(Cn1nnc2ccccc2c1=O)NC(=O)Nc1cc(Cl)ccc1OC (centres undefined) | inactive: -12.8% | –
34 | Cc1cccc(Cn2c(CNS(=O)(=O)c3ccc(Cl)s3)nc3cccnc32)c1 | inactive: -19.6% | –
35 | CCOc1ccc(-c2cc3c(=O)n(CC(=O)Nc4c(C)cccc4C)ccn3n2)cc1 | inactive: -3.09% | –
36 | CC(C)CN(CCNC(=O)c1cc(=O)[nH]c2ccc(S(=O)(=O)N3CCCCCC3)cc12)CC(C)C | inactive: -17.8% | –
37 | Cn1c(=O)oc2cc(S(=O)(=O)NCCC(=O)Nc3ccc(F)c(Cl)c3)ccc21 | inactive: -8.57% | –
38 | Cc1ccc(Cl)cc1NC(=O)/C(C#N)=C/c1c(C)n(Cc2ccccc2)c2ccccc12 | inactive: -9.21% | –
39 | CC1CCCCN1C(=O)CSc1nnc(-c2cccc(Cl)c2)o1 (centres undefined) | inactive: 49.8% | –
40 | CC(=O)N1CCCc2cc(S(=O)(=O)N(C)CC(=O)Nc3ccc(F)c(Cl)c3)ccc21 | inactive: -26.4% | –
41 | Fc1ccc(-c2csc(-c3nc(-c4ccc(Br)s4)cs3)n2)cc1 | inactive: 8.32% | –
42 | CCOc1ccc(NC(=O)CCCN2C(=O)C(c3ccccc3)Oc3cccnc32)cc1 (centres undefined) | inactive: -15.4% | –
43 | Cc1ccc(NC(=O)c2ccc3nc(Cc4ccccc4)oc3c2)cc1F | inactive: -17.1% | –
44 | CCN(CC)c1ccc2cc(-c3nnc(-c4cccc(Cl)c4)o3)c(=O)oc2c1 | inactive: 36.7% | –
45 | CCCCN(C)CCNC(=O)Cn1ncc2c3ccccc3n(CCC)c2c1=O | inactive: -6.36% | –
46 | Cc1ccc(NC(=O)c2ncn(-c3ccccc3)n2)c(Cl)c1 | inactive: 76.5% | –
47 | COc1ccc(C)cc1N(C)C(=O)c1sc2nc3n(c(=O)c2c1C)CCCCC3 | inactive: 4.71% | –
48 | Cc1csc2nc(-c3cccc(NC(=O)c4cccc(F)c4)c3)cn12 | inactive: -14.6% | –

Row | Structure (SMILES) | activity change, negative = inhibition | Potency
49 | CCCCCn1c(=O)[nH]c2cc(C(=O)NCc3ccc(C)cc3)ccc2c1=O | inactive: -11.9% | –
50 | CCOc1ccc(CCNC(=O)C2=C(C)C(=O)OC23CCC(C)CC3)cc1OCC (centres undefined) | inactive: -7.83% | –
51 | COc1cccc(NC(=O)CSc2nc(-c3ccccc3)nc3c2Cc2cc(Cl)ccc2O3)c1 | inactive: -16% | –
52 | Cc1ccc(C(=O)c2oc3ccccc3c2NC(=O)c2nc(S(C)(=O)=O)ncc2Cl)cc1F | inactive: -7.02% | –
53 | CCOc1cc(C#N)c(NC(=O)c2ccc(OC)c(S(=O)(=O)N3CCCC3)c2)cc1OCC | inactive: -12.2% | –
54 | O=S(=O)(c1ccccc1)c1nc(-c2ccc(F)cc2)oc1N1CCOCC1 | inactive: -18.8% | –
55 | CCCOc1ccc(OC(=O)c2sc3ncn(Cc4cccc(F)c4)c(=O)c3c2C)cc1 | inactive: -2.58% | –
56 | O=C(c1nc(-c2ccc(Cl)cc2)n2c1CCCCC2)N1CCN(c2ccc(F)cc2)CC1 | inactive: -41.4% | –
57 | O=C1NC(=O)C(=Cc2ccc(-c3ccc(F)cc3O)o2)S1 | inactive: 9.74% | –
58 | COc1ccccc1NC(=O)N(Cc1ccco1)C1CCN(C(C)=O)CC1 | inactive: -20.3% | –
59 | COc1ccc(NC(=O)c2ccc(COc3ccccc3OC)o2)cc1OC | inactive: -17.2% | –
60 | CCn1cc(C(=O)NCc2ccccc2)c(=O)c2cc(S(=O)(=O)N3CCCCCC3)ccc21 | inactive: -5.95% | –
61 | Cc1ccc(OCc2nc3ccccc3n2Cc2ccccc2Cl)cc1 | inactive: -12.6% | –
62 | CCCNC(=O)CCc1c(C)nc2nc(-c3cc(OC)cc(OC)c3)nn2c1C | inactive: 5.59% | –
63 | COc1cccc(CNC(=O)CCC(=O)N2Cc3cccc(OC)c3Oc3ncccc32)c1OC | inactive: -19.8% | –
64 | O=C(Cc1ccccc1)Nc1c(C(=O)Nc2ccccc2F)oc2ccccc12 | inactive: -2.7% | –
65 | CCc1ccc(-c2[nH]c3c(c2-c2sc(C)c(C(=O)OC)c2O)c(=O)n(C)c(=O)n3C)cc1 | inactive: 7.03% | –
66 | COc1ccc(N(C)C(=O)CCS(=O)(=O)c2cccc3nsnc23)cc1 | inactive: -12.3% | –
67 | COc1cccc2sc(N(Cc3cccnc3)C(=O)C3COc4ccccc4O3)nc12 (centres undefined) | inactive: -13.4% | –
68 | Cc1c(NC(=O)c2ccccc2F)cccc1-c1nc2cccnc2s1 | inactive: -9.73% | –
69 | O=C(Cn1ncc2c(=O)oc3ccccc3c21)NCc1ccc(Cl)cc1 | inactive: -13.8% | –
70 | N=C(N)c1ccc2cc(OC(=O)c3ccc(N=C(N)N)cc3)ccc2c1 | inactive | –
71 | COc1ccc2c(c1)CCc1c(C(=O)Nc3c(C)nn(Cc4ccc(C)cc4)c3C)noc1-2 | – | active: 22.4 µM
72 | CCCN(CCC)C(=O)C1CCN(c2ncnc3c2nc2n3CCCCC2)CC1 | inactive: 14.8% | –

Row | Structure (SMILES) | activity change, negative = inhibition | Potency
73 | CCOc1ccc(CCNC(=O)CN(c2ccc(C)cc2)S(=O)(=O)N(C)C)cc1OCC | inactive: -16% | –
74 | O=c1c(S(=O)(=O)c2ccccc2)cn(Cc2ccc(F)cc2)c2cc(N3CCCCC3)c(F)cc12 | inactive: -13.7% | –
75 | CC1Cn2cc(C(=O)Nc3cccc(C(F)(F)F)c3)c(=O)c3c(Cl)ccc(c32)O1 (centres undefined) | inactive: -6.13% | –
76 | COC(=O)c1nnn(CC(=O)Nc2ccc(Br)c(C)c2)c1N | inactive: -2.03% | –
77 | C[C@H]1C[C@@H]2[C@H]([C@@H](O)C[C@@]3(C)[C@H]2CC[C@]3(O)C(=O)CO)[C@@]2(C)C=CC(=O)C=C12 | inactive: 7.59% | –
78 | Cc1ccc(-n2c(=O)c3c(c4cc(C)ccc4n3C)n(CC(=O)Nc3cc(C)cc(C)c3)c2=O)cc1 | inactive: 9.87% | –
79 | CCOC(=O)c1c(-c2ccc(OC)cc2)oc2ccc(OCc3ccc(C(=O)OC)cc3)cc12 | inactive: -17.8% | –
80 | CCNc1c(NC(=O)c2cc(OCC)c(OCC)c(OCC)c2)c(=O)oc2ccccc12 | inactive: -14.9% | –
81 | CC(NC(=O)C(=O)Nc1c2c(nn1-c1ccc(F)cc1)CSC2)c1ccccc1 (centres undefined) | inactive: -15.9% | –
82 | COc1cccc(CNC(=O)CCn2cccn2)c1 | inactive: 1.96% | –
83 | CCCCC/C=C\C/C=C\CCCCCCCC(=O)NC(C)c1ccccc1 (centres undefined) | inactive: -17.4% | –
84 | CCOC(=O)c1c(NC(=O)COc2ccc(F)cc2)sc2c1CCC(C)C2 (centres undefined) | inactive: -26.6% [at 11.5 µM] | –
85 | N#C/C(=C\c1ccc(-c2cc(Cl)ccc2Cl)o1)C(=O)Nc1ccccc1C(=O)O | inactive: 16.1% | –
86 | CC(C)(C)C(=O)Nc1cccc(C(=O)OCc2cc(=O)n3nc(C4CCCCC4)sc3n2)c1 | inactive: -5.92% | –
87 | O=C(CSc1nc2ccccc2n1Cc1ccccc1Cl)NCc1ccccc1 | inactive: -35.8% | –
88 | CCOC(=O)c1[nH]cnc1C(=O)Nc1ccc(F)cc1 | inactive: -10.5% | –
89 | CCCCN(C)CCNC(=O)c1nn(-c2ccc(OC)cc2)c(=O)c2c1c1ccccc1n2C | inactive: -11.1% | –
90 | COc1cccc(CNC(=O)CCNS(=O)(=O)c2ccc3c(c2)oc(=O)n3C)c1 | inactive: -7.03% | –
91 | Cc1cc(C)c(Cn2c(C(O)c3ccccc3)nc3ccccc32)c(C)c1 (centres undefined) | inactive: -20.7% | –
92 | CCN(Cc1ccccc1)C(=O)CN1C(=O)COc2ccc(S(=O)(=O)N3CCCCCC3)cc21 | inactive: -17.3% | –
93 | CCn1cc2nc(SCc3ccccc3F)n(Cc3ccc(C)cc3)c(=O)c2n1 | inactive: -29.3% | –
94 | Cc1ccc(NC(=O)CCS(=O)(=O)c2cccc3nsnc23)c(C)c1 | inactive: -8.6% | –
